Among all 310,000 compounds or so, about 14,000 (4.5%) showed an effect of 50% or more. Effects have a minus sign here. The list shows a part of the results.
target: human ether-à-go-go-related gene (hERG) potassium channel (human, UniProt Q12809); experiment: primary screen, population patch clamp on CHO cells stably expressing hERG
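Note: peak tail current of the secondary pulse compared with the same well before compound.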

Sequence of human ether-à-go-go-related gene (hERG) potassium channel (Q12809 whole entry, looked up): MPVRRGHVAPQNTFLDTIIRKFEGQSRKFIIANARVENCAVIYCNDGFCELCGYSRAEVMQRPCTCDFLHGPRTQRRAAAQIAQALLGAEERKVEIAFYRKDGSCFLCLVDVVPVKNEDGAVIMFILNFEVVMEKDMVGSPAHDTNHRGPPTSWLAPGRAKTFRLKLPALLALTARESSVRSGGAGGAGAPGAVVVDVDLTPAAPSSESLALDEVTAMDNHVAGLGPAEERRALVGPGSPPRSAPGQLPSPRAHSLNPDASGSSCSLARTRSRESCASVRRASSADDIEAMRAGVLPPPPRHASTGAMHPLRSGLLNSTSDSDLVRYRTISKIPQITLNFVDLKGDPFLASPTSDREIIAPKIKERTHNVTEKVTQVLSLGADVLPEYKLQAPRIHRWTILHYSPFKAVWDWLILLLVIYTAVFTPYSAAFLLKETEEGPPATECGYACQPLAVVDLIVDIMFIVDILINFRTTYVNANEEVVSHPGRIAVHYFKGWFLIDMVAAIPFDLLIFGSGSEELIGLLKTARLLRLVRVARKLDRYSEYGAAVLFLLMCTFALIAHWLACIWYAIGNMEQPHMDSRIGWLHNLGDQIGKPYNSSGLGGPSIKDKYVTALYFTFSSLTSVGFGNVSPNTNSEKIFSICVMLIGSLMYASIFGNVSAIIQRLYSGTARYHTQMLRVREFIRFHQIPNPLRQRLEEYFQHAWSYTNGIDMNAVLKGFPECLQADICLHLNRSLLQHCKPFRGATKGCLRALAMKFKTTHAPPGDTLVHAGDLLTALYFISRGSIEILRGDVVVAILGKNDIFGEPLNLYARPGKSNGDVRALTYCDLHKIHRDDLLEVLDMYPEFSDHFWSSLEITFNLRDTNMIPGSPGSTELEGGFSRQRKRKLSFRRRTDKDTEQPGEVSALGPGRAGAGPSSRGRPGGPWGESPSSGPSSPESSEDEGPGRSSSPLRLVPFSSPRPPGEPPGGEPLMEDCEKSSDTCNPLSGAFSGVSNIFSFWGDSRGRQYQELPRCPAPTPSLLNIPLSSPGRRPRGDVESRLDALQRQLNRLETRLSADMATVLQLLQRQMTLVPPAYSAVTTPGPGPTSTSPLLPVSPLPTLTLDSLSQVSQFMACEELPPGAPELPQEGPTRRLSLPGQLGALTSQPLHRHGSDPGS

Compared with CC(=O)Nc1ccc(NC(=O)c2cc(=O)c3ccc(C)cc3o2)cc1, CC(=O)Nc1ccc(Nc2c3ccccc3nc3ccccc23)cc1 is lower in “hERG current change (%, negative = inhibition) at 10uM” value: 17.4% for the first, -55.7% for the second.

First: CCN(CC)c1ccc(C(=O)NN)cc1
Second: NNC(=O)c1ccc(CSc2nc3ccccc3s2)cc1
The “hERG current change (%, negative = inhibition) at 10uM” value of the first is higher: 8.76% for the first, 6.09% for the second.

Going from COc1ccc(/C=N/OCC(=O)Nc2nc3ccccc3s2)cc1 to CC(=O)Oc1ccc(Nc2ccccc2)cc1, the “hERG current change (%, negative = inhibition) at 10uM” value rises from -8.89% to 19%.

First: CCOc1ccccc1Oc1nc(-c2ccccc2O)nc2ccccc12
Second: C/C(=N\NC(=O)c1ccccc1O)c1cccc(NC(=O)c2ccccc2)c1
The “hERG current change (%, negative = inhibition) at 10uM” value of the first is higher: 15.5% for the first, -0.335% for the second.

Compared with O=C(N/N=C/c1ccc([N+](=O)[O-])cc1)c1ccccc1OCc1ccccc1, COc1ccccc1NC(=O)Cn1nnc(C(=O)NCCc2ccccc2)c1N is higher in “hERG current change (%, negative = inhibition) at 10uM” value: 1.19% for the first, 11.6% for the second.

First: CC(=O)C1=NOC2C(=O)N(c3ccc(Cl)cc3)C(=O)C12 (stereo not drawn)
Second: CCOC(=O)C1(CC)NC(c2ccco2)C2C(=O)N(c3ccc(C)cc3)C(=O)C21 (stereo not drawn)
The “hERG current change (%, negative = inhibition) at 10uM” value of the first is higher: 15.9% for the first, 6.82% for the second.

First: Cc1cccc(OCc2nnc(SCC(=O)N3CCc4ccccc43)n2C)c1
Second: Cn1c(CNC(=O)c2ccc(Cl)cc2)nnc1SCC(=O)N1CCOCC1
The “hERG current change (%, negative = inhibition) at 10uM” value of the first is lower: -5.99% for the first, 15.4% for the second.

Compared with Cn1c(CNC(=O)C(Cc2ccccc2)NC(=O)c2cccc(F)c2)cc(=O)n(C)c1=O (stereo not drawn), O=C(Nc1ccccc1)Nc1ccc(F)cc1F is higher in “hERG current change (%, negative = inhibition) at 10uM” value: -5.24% for the first, 10.9% for the second.

Going from CCOC(=O)CSc1nnc(-c2ccncc2)o1 to N#Cc1cccc(-c2nnc(SCc3ccccc3C#N)o2)c1, the “hERG current change (%, negative = inhibition) at 10uM” value falls from 13.5% to -14.4%.

Compared with COC(=O)COn1c(SCC(=O)OC)nc2ccccc2c1=O, COC(=O)CSc1nnc(CNS(=O)(=O)c2ccc(Cl)cc2)n1C is higher in “hERG current change (%, negative = inhibition) at 10uM” value: -15.7% for the first, 9.68% for the second.

Going from Cc1ccc(C)c(N2CCN(C(=O)CN3C(=S)NC(C)(C)CC3C)CC2)c1 (stereo not drawn) to CCOC(=O)N1CCN(c2cc(=O)n(-c3ccccc3Cl)c(=O)[nH]2)CC1, the “hERG current change (%, negative = inhibition) at 10uM” value rises from 8.14% to 14.1%.

Compared with Cc1cc(/C=C(/C#N)C(=O)O)c(C)n1-c1cccc2ccccc12, COc1cc(OC)c(OC)cc1/C=C/c1cc(C(=O)O)c2ccccc2n1 is lower in “hERG current change (%, negative = inhibition) at 10uM” value: 20.1% for the first, 12.1% for the second.

Going from C=CCN(c1ccccc1C(=O)NCC(=O)O)S(=O)(=O)c1ccccc1C to COCCCNC(=O)COc1ccc(S(=O)(=O)Nc2ccccc2)cc1, the “hERG current change (%, negative = inhibition) at 10uM” value falls from 24.7% to -12.4%.

Compared with CC12CC(c3ccccc3O1)C(C(=O)OCc1ccccc1)C(=O)N2 (stereo not drawn), O=C1CCCN1CN(C(=O)c1ccccc1)c1ccccc1 is lower in “hERG current change (%, negative = inhibition) at 10uM” value: 1.51% for the first, -7.7% for the second.

Compared with Cc1nn(C(C)C(=O)NC2CCC(C)CC2)c(=O)c2nn(-c3ccccc3)c(C)c12 (stereo not drawn), Cc1ccc(C(=O)OCC(=O)NN2C(=O)NC3(CCC(C)CC3)C2=O)cc1 (stereo not drawn) is higher in “hERG current change (%, negative = inhibition) at 10uM” value: -28.3% for the first, 2.78% for the second.

Compared with O=C(NCC(=O)N1CCN(c2ccccc2O)CC1)c1ccco1, O=C(NC(=O)N1CCN(c2ccc(F)cc2)CC1)c1ccccc1 is lower in “hERG current change (%, negative = inhibition) at 10uM” value: -8.76% for the first, -27.5% for the second.

First: O=C(CN1CCOCC1)Nc1ncc(Cc2cccc3ccccc23)s1
Second: CCc1ccc(NC(=O)CN2CCc3ccccc3C2)cc1
The “hERG current change (%, negative = inhibition) at 10uM” value of the first is higher: -23.3% for the first, -34.2% for the second.

Going from COc1ccc([N+](=O)[O-])cc1N(CC(=O)NC(C(C)C)C(C)C)S(C)(=O)=O to COc1ccc([N+](=O)[O-])cc1NC(=O)c1ccc(Br)s1, the “hERG current change (%, negative = inhibition) at 10uM” value rises from -20% to 2.86%.

Going from N#CC1=C(N)OC2=C(C(=O)CCC2)C1CCc1ccccc1 (stereo not drawn) to CC(CCc1ccco1)NC(=O)c1cccc2c1C(=O)N(C1CCCCC1)C2 (stereo not drawn), the “hERG current change (%, negative = inhibition) at 10uM” value rises from -6.93% to -6.82%.

Going from CCc1ccc(C(=O)COC(=O)c2cncc(Br)c2)cc1 to COc1ccc(C(=O)CCc2ccc(OC)c(OC)c2)cc1, the “hERG current change (%, negative = inhibition) at 10uM” value rises from -20.7% to -10.3%.

Going from C=C(C)c1cccc(C(C)(C)NC(=O)NCC2CCCO2)c1 (stereo not drawn) to O=C(NNC(=S)NCC1CCCO1)c1ccc(S(=O)(=O)N2CCOCC2)cc1 (stereo not drawn), the “hERG current change (%, negative = inhibition) at 10uM” value rises from 3.74% to 5.93%.

Going from CN1CCN(C2CCN(c3cccc(Cl)c3)CC2)CC1CCO (stereo not drawn) to COCCNC(=O)/C(C#N)=C/c1c(N2CCN(c3cccc(Cl)c3)CC2)nc2c(C)cccn2c1=O, the “hERG current change (%, negative = inhibition) at 10uM” value falls from 12.9% to -3.5%.

Going from CSc1ncccc1C(=O)OCC(=O)N(C)C to COc1nc(SCC(=O)Nc2ccccc2Cl)nc(N(C)C)n1, the “hERG current change (%, negative = inhibition) at 10uM” value falls from 6.49% to 3.1%.

Compared with O=C(NNC(=O)c1ccc2c(=O)n3c(nc2c1)CCC3)c1ccc(F)cc1, O=C(O)c1ccc(/C=N/NC(=O)c2cc(-c3ccc4c5c(cccc35)CC4)n[nH]2)cc1 is higher in “hERG current change (%, negative = inhibition) at 10uM” value: -4.34% for the first, 18.1% for the second.

Compared with O=C1N=C(N2CCOCC2)S/C1=C\c1ccncc1, COc1ccc(CNc2ccc(N3CCOCC3)cc2)cc1 is higher in “hERG current change (%, negative = inhibition) at 10uM” value: -2.19% for the first, 16.8% for the second.

Compared with CCOc1cccc(Nc2cc3n(c(=O)n2)CCc2cc(OC)c(OC)cc2-3)c1, CCN(C(=O)c1c(OC)cccc1OC)c1nnc(-c2cccnc2)s1 is higher in “hERG current change (%, negative = inhibition) at 10uM” value: -17.4% for the first, -4% for the second.

Going from COc1ccc(C2=CC(c3sccc3C)n3nnnc3N2)cc1 (stereo not drawn) to Cc1ccc(S(=O)(=O)N(C)c2ccc(OC(=O)c3cccs3)cc2)cc1C, the “hERG current change (%, negative = inhibition) at 10uM” value rises from 2.05% to 16.9%.

Going from COc1cc(OC)cc(C(=O)NCCc2cnc[nH]2)c1 to COc1cc(C(=O)Nc2cc(C)ccn2)ccc1OCC(=O)N1CCOCC1, the “hERG current change (%, negative = inhibition) at 10uM” value falls from 22.7% to -8.72%.

Going from CCCCOCCCN1CC(=O)N2C(C)c3[nH]c4ccccc4c3C[C@H]2C1=O (stereo partly drawn) to CC(=O)c1ccc(N2CCN(C(=O)Cc3n[nH]c(=O)c4ccccc34)CC2)cc1, the “hERG current change (%, negative = inhibition) at 10uM” value falls from -3.57% to -7%.

Going from Cc1oc2ccc(OCc3cccc(Cl)c3)cc2c1C(=O)O to COc1ccc2c(C(=O)c3ccc(C)cc3)n(Cc3ccc(C(N)=O)cc3)[n+]([O-])c2c1, the “hERG current change (%, negative = inhibition) at 10uM” value falls from 21.6% to -12.5%.

Compared with Cc1ccc(C(=O)/C=C/C(=O)O)cc1, Cc1ccc(CC(=O)Nc2nc3c(s2)CCCC3)cc1 is lower in “hERG current change (%, negative = inhibition) at 10uM” value: 7.47% for the first, -9.39% for the second.

Compared with O=C(NC1CCCC1)c1cccc(S(=O)(=O)N2CCCCC2)c1, CC(=O)Nc1ccc(S(=O)(=O)NNC(=O)c2ccc(S(=O)(=O)N3CCCCC3)cc2)cc1 is higher in “hERG current change (%, negative = inhibition) at 10uM” value: -10.7% for the first, 6.41% for the second.

Going from COc1cc2c(OC(C)=O)c3c(c(-c4ccc5c(c4)OCO5)c2cc1OC)C(=O)OC3 to COc1ccc(Cl)c(OC)c1C(=O)NC(=O)Nc1c(F)cc(F)cc1F, the “hERG current change (%, negative = inhibition) at 10uM” value falls from 15.4% to 1.14%.

First: COCCN(CC(=O)NCc1ccc(OC)cc1)C(=O)CCC(=O)Nc1nccs1
Second: CCOC(=O)c1c(NC(=O)COc2cccc3c2CCN(Cc2ccc(F)cc2)C3=O)sc2c1CCC2
The “hERG current change (%, negative = inhibition) at 10uM” value of the first is lower: -8.1% for the first, 8.25% for the second.

Compared with Cc1cc2nc(-c3ccc[nH]c3=O)[nH]c2cc1C, Cc1sc2ncnc(-n3nnc4ccccc43)c2c1C is lower in “hERG current change (%, negative = inhibition) at 10uM” value: 15.4% for the first, -16.8% for the second.

Going from CCOC(=O)c1c(CS(=O)(=O)c2ccccc2)n(C)c2cc(Br)c(O)c(CN(C)C)c12 to CSCCC(NS(=O)(=O)c1ccccc1F)C(=O)NCCCn1nc(C)cc1C (stereo not drawn), the “hERG current change (%, negative = inhibition) at 10uM” value rises from -50.4% to -1.49%.

Compared with C/C(CC(C)C)=N\Nc1ccc(S(N)(=O)=O)cc1[N+](=O)[O-], O=C(NNc1ccc([N+](=O)[O-])cc1[N+](=O)[O-])C1C2CCCCC21 (stereo not drawn) is lower in “hERG current change (%, negative = inhibition) at 10uM” value: 0.529% for the first, -21% for the second.

Compared with O=C(CSc1nnc2ccccn12)c1ccc(Cl)cc1, Fc1ccc(-n2nnc(-c3ccccc3Cl)n2)cc1 is higher in “hERG current change (%, negative = inhibition) at 10uM” value: -0.78% for the first, 12.2% for the second.

Compared with CN(C)C(=S)Nc1ccc(Cc2ccncc2)cc1, CCN(Cc1ccncc1)C(=O)CC1C(=O)NCCN1Cc1ccc(F)c(F)c1 (stereo not drawn) is lower in “hERG current change (%, negative = inhibition) at 10uM” value: 13.4% for the first, -3.02% for the second.

Compared with O=C(Nc1ccc(Br)cc1)C1CCN(C(=O)c2ccco2)CC1, O=C(O)CCc1ccc(-c2ccc(Br)cc2)n1CC(=O)O is higher in “hERG current change (%, negative = inhibition) at 10uM” value: -14% for the first, 4.99% for the second.

First: Cc1ccccc1NC1(C#N)CCCCC1
Second: Cl.OC1(c2cccc(C(F)(F)F)c2)CCNCC1
The “hERG current change (%, negative = inhibition) at 10uM” value of the first is lower: -1.06% for the first, 8.53% for the second.

Going from O=S(=O)(Cc1ccccc1Cl)Nc1ccccn1 to COc1ccc(-[n+]2c(-c3ccccc3)cc(-c3ccccc3)cc2-c2ccccc2)cc1.[O-][Cl+3]([O-])([O-])[O-], the “hERG current change (%, negative = inhibition) at 10uM” value falls from -1.18% to -71.9%.

First: CCC(=O)N1CCc2cc(Br)cc(S(=O)(=O)N3CCCC(C(=O)O)C3)c21 (stereo not drawn)
Second: COc1ccc(N2CCN(C(=O)c3cc4c(s3)-c3ccccc3S(=O)(=O)C4)CC2)cc1
The “hERG current change (%, negative = inhibition) at 10uM” value of the first is higher: 7.41% for the first, -8.01% for the second.

Going from Cc1ncc(S(=O)(=O)C(C)(C)C)c(N)n1 to CCCCCCCc1nn2c(=O)cc(O)nc2s1, the “hERG current change (%, negative = inhibition) at 10uM” value falls from 2.37% to -7.31%.

First: O=C(NCc1csc(-c2cccs2)n1)C1CCC1
Second: Cl.NCCc1ccc(O)c(O)c1
The “hERG current change (%, negative = inhibition) at 10uM” value of the first is lower: 1.46% for the first, 17.8% for the second.

Source: article PMC4336329 (PLoS ONE, 2015)
